Several values for one entry are separate records, joined by “and”; a condition that tells them apart may be missing. Equal entries are not always repeated.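 Exposure lasted 48 hours, with cells grown in 96-well plates and compounds tested at five concentrations. GI50 is the concentration that inhibits growth by half. TGI is the concentration that stops growth completely.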 Numbered stars: 1 amine (or outer) side, 2 acyl side, 3 side chain; on linkers, the order of the positions; unused ones are H or OH. Bridge positions count the residues as written; N and C are the ends. Square brackets hold non-standard residues; d marks the D form. Peptide text beside a SMILES is read from it. * marks the point of attachment. Phe(3-Me) = Cc1cccc(C[C@H](N)C(=O)O)c1; NH(4-Cl-2-F-phenyl) = Fc1cc(Cl)ccc1N*; Pro(4R-Me) = C[C@H]1CN[C@H](C(=O)O)C1; Hyp = O=C(O)[C@@H]1C[C@@H](O)CN1; aThr = C[C@H](O)[C@H](N)C(=O)O; Pip = O=C(O)[C@@H]1CCCCN1; CO = O=C([*:1])[*:2]
Test system: NCI-H322M lung
Assay: growth of human tumour cells (NCI), 48 h

Row | Compound | TGI | GI50
1 | COC1CC(OS(=O)(=O)c2ccc(C)cc2)C(OS(=O)(=O)c2ccc(C)cc2)C(COS(=O)(=O)c2ccc(C)cc2)O1 (stereo not drawn) | > 100 µM | 
2 | CSCCCNC(=O)c1csc([C@@H](CSC)NC(=O)CCNC(=O)[C@@H](NC(=O)OCC(Br)(Br)Br)C(C)O)n1 (stereo partly drawn) | > 100 µM | 
3 | CCOC(=O)NC(N(C)C(C(C)C)P(=O)(OCC)OCC)(C(F)(F)F)C(F)(F)F (stereo not drawn) | > 100 µM | 
4 | CCOC(=O)c1c(NC(=O)c2ccccc2)sc2c1CCC2 | > 100 µM | 
5 | N#Cc1nc(Cc2ccccc2)oc1N | > 100 µM | 
6 | CCOC(=O)NC(=O)c1cn(CCCOC(=O)CCCCCCCCC(=O)OCCCn2cc(C(=O)NC(=O)OCC)c(=O)[nH]c2=O)c(=O)[nH]c1=O | 93.9 µM | 
7 | CC(=O)O[C@@H]1CC(C)C2CC2C2=C(C(O)OC2O)[C@@H]1C(C)CCC=C(C)C (stereo partly drawn) | 67.6 µM | 
8 | Cc1cc2c(C(N)=O)cccc2n1-c1nc2c(c(NCc3ccccc3)n1)CCCN2 | 0.798 µM | 0.288 µM
9 | c1ccc(-c2cc(-c3cc(-c4ccccc4)n[nH]3)[nH]n2)cc1 | > 100 µM | 
10 | CCOC(=O)/C=C/[C@H](O[Si](c1ccccc1)(c1ccccc1)c1ccccc1)C(C)(C)C | > 31.6 µM | 
11 | Cc1nn2c(/C=C3/C(=O)Nc4ccc(Cl)cc43)c(-c3ccccc3)nc2s1 | 17.6 µM | 3.97 µM
12 | O=C(N/N=C/c1ccc(O)cc1O)c1ccc(Nc2ccnc(C(F)(F)F)c2)cc1 | > 43.9 µM | 0.821 µM
13 | C/C(=C1/N=C(c2cc([N+](=O)[O-])ccc2Cl)N(C2=CC=C(Cl)CC2)C1=O)c1cc2ccccc2oc1=O | > 100 µM | 
14 | c1ccc2c(Cc3c[nH]c4ccccc34)c[nH]c2c1 | 30.6 µM | 
15 | N#C[C@](CO)(NC(=O)OCc1ccccc1)C(F)F | > 100 µM | 
16 | NC(=O)C1=C(c2ccccc2)c2ccccc2C1=O | 37.8 µM | 
17 | COc1ccc(C2=C(c3cn(C)c4ccccc34)C(=O)NC2=O)cc1OC | > 25 µM | > 25 µM
18 | CCOC(=O)CC[C@@H](NC(=O)c1ccc(NCc2ccc3nc(OC)c(OC)nc3c2)cc1)C(=O)OCC | > 100 µM | 
19 | Nc1ccccc1Sc1ccc(Cl)cc1 | > 100 µM | 
20 | CCOC(=O)C1(Cc2ccccc2)CCN(C(=O)c2ccccc2)C2C1C2(Cl)Cl (stereo not drawn) | 92.1 µM | 
21 | COc1ccc(CN=C2Nc3ccncc3S(=O)(=O)N2c2ccccc2)cc1 | > 100 µM | 
22 | C(/C=N/NC1=NCCN1)=N\NC1=NCCN1 | > 100 µM | 
23 | C[C@@H]1CCN(C(=O)CC#N)C[C@@H]1N(C)c1ncnc2[nH]ccc12 | > 100 µM | 75.4 µM
24 | Cn1c(=O)c2[nH]c(COCc3nc4c([nH]3)c(=O)n(C)c(=O)n4C)nc2n(C)c1=O | > 100 µM | 

Row | Compound | TGI | GI50
25 | COc1cc2cnc3c(c2cc1OC)Cc1cc2c(cc1-3)OCO2 | 26.1 µM | < 0.0166 µM
26 | Cc1[nH]n(-c2nc(O)c(C)c(=O)[nH]2)c(=O)c1CCO | > 100 µM | 
27 | CCOC(=O)c1cc2cc(CSc3ccccc3)ccc2oc1=O | > 100 µM | 
28 | CCCCCC(/C=N/NC(N)=S)C(O)(C(F)(F)F)C(F)(F)F (stereo not drawn) | > 10 µM | 
29 | CNC=O | > 10000 µM | 
30 | CCOC(=O)C#Cc1ccc(C#CC(=O)OCC)cc1 | > 37.6 µM | 
31 | CCOc1cc2ncc(C#N)c(Nc3ccc(F)c(Cl)c3)c2cc1NC(=O)/C=C/CN(C)C | > 10 µM | 0.0206 µM
32 | NC(=NC1CCCCCC1)c1ccc(N2CCN(c3ccc(C(N)=NC4CCCCCC4)cc3)CC2)cc1 | > 50 µM | 20.4 µM
33 | COC[C@H]1OC(=O)c2coc3c2[C@@]1(C)C1=C(C3=O)[C@@H]2CCC(=O)[C@@]2(C)C[C@H]1OC(C)=O | > 100 µM | 3.92 µM
34 | CCN(CC)CCCC(C)Nc1cnc(C(=O)Nc2cc(F)cc3cccnc23)cn1 (stereo not drawn) | 22.7 µM and 3.16 µM | 10.8 µM and 1.69 µM
35 | CCOP(=O)(OCC)C(Cc1ccccc1)N=C(c1ccccc1)c1ccccc1 (stereo not drawn) | 27.6 µM | 
36 | O[C@]12CCCC[C@H]1CCC2 | > 100 µM | 
37 | COc1ccccc1/C=C1/Sc2scc(CC(=O)Nc3ccccc3)[n+]2C1=O | > 100 µM | 
38 | Cc1cc(S(=O)(=O)NC#N)c(S/C(=N\Nc2ccc([N+](=O)[O-])cc2)c2ccccc2)cc1Cl | 29 µM | 13.1 µM
39 | N#CSCC1CC(O)(c2ccccc2)C(c2ccccc2)C(c2ccc(F)cc2)O1 (stereo not drawn) | 24.2 µM | 4.28 µM
40 | COc1cccc(/C=C/C(=O)c2cc3c(N)c(C(=O)Nc4cccc(Cl)c4C)sc3nc2C)c1 | > 24.7 µM | 1.65 µM
41 | O=C(c1cc(-c2cc3c(cc2C(=O)N2Cc4ccccc4C[C@H]2CN2CCOCC2)OCO3)n2c1CCCC2)N(c1ccccc1)c1ccc(O)cc1 | > 100 µM | 20.7 µM
42 | Cc1ccc(NNc2cc(=O)[nH]c(=O)[nH]2)cc1Cl | > 100 µM | 
43 | O=C(O)c1ccc([N+](=O)[O-])c2c(=O)c3ccccc3[nH]c12 | > 100 µM | 
44 | COc1cc(/C=C2\CCc3cc(OC)c(OC)cc3C2=O)cc(OC)c1 | > 100 µM | 
45 | N#Cc1nsnc1-c1nc(-c2nsnc2C#N)nc(-c2nsnc2C#N)n1 | > 100 µM | 
46 | O=S(=O)(NC(c1ccccc1)(c1cc2ccccc2[nH]1)c1cc2ccccc2n1S(=O)(=O)c1ccccc1)c1ccccc1 (stereo not drawn) | > 100 µM | 
47 | Cc1nc(NC(=S)Nc2ccc(F)cc2)sc1C(=O)NNC(=S)Nc1ccc(F)cc1 | > 100 µM | 19 µM
48 | N#CC(C#N)=CN1CCN(C(=O)c2ccccc2)C1=S | 98.3 µM | 33.4 µM

Row | Compound | TGI | GI50
49 | O=C(N/N=C/c1cc(Br)cc(Br)c1[O-])c1ccccc1O.O=C(N/N=C/c1cc(Br)cc(Br)c1[O-])c1ccccc1O.[Mn+2] | 20.8 µM | 
50 | O=[N+]([O-])c1cc(Br)cc2c1[nH]c1ccc(Br)cc12 | > 100 µM | 6.32 µM
51 | CCC(/C=C/c1ccccc1)=N\NC(=S)N/N=C(/C=C/c1ccccc1)CC | > 100 µM | 
52 | O=C(CN=C(CN(c1ccccc1)c1ccccc1)Oc1c([N+](=O)[O-])cc([N+](=O)[O-])cc1[N+](=O)[O-])N1CCNCC1 | > 100 µM | 
53 | O=S(=O)(O)Nc1ccc(-c2nc3ccccc3s2)cc1Cl | > 100 µM | 
54 | O=C(/C(Cl)=C/c1ccccc1)c1ccccc1 | 30 µM | 
55 | Cc1cccc(C[C@H](NC(=O)Nc2ccc(Cl)cc2F)C(=O)N[C@@H]2C(=O)N3C[C@H](O)C[C@H]3C(=O)N3CCCC[C@H]3C(=O)N[C@@H](C)C(=O)N3C[C@H](C)C[C@H]3C(=O)O[C@H]2C)c1 ({NH(4-Cl-2-F-phenyl)-CO}-[Phe(3-Me)][aThr][Hyp][Pip]A[Pro(4R-Me)]; ester 2-C) | 4.29 µM | 0.967 µM
56 | CC1(C)N=C(N)N=C(N)N1c1cccc(CCCCc2ccc(S(=O)(=O)F)cc2Cl)c1 | > 41.6 µM | 4.34 µM
57 | C/C=C/[C@@H]1O[C@H](CC#C[Si](C)(C)C)[C@@]2(C=O)C(C)=CC[C@H](C(C)C)[C@@H]12 | > 100 µM | 
58 | CCS(=O)(=O)c1ccc(OC)c(Nc2nccc(N(C)c3ccc4c(C)[nH]nc4c3)n2)c1 | > 25 µM | 7.73 µM
59 | c1cncc(CNc2ccccc2-c2nnc(Nc3ccc4c(c3)OCCO4)o2)c1 | > 100 µM | 1.99 µM
60 | O=C(COC(=O)c1ccccc1)c1ccc(Br)cc1 | 27.5 µM | 
61 | COc1cc(-c2cn(-c3ccc(Cl)cc3)c(=O)[nH]2)cc(OC)c1OC | > 100 µM | > 100 µM
62 | C=CCN=C1N=C(CC(=O)OCC)CS1 | > 100 µM | 
63 | CC1OC(OC2C(Oc3cc(O)c4c(=O)cc(-c5ccc(O)cc5)oc4c3)OC(CO)C(O)C2O)C(O)C(O)C1O (stereo not drawn) | > 100 µM | 
64 | CSc1cc(Cl)c(C)cc1S(=O)(=O)NC(=O)NNc1ccccn1 | > 100 µM | 
65 | Nc1ncc(-c2ccc(C(F)(F)F)cc2)c(NC2CCCCCC2)n1 | > 100 µM | > 100 µM
66 | Cc1cccc(C)c1NC(=O)C(=O)CC(=O)CO | > 100 µM | 
67 | Cc1ccc(S(=O)(=O)OCC23CCC(C4CC42)C2CC23)cc1 (stereo not drawn) | > 100 µM | 
68 | OCC1CCCCN1Cc1nc2ccc(Cl)cc2[nH]1 (stereo not drawn) | > 100 µM | 
69 | COc1ccc(/C=C(\C#N)c2cc(OC)c3c(c2)OCO3)cc1 | > 73.2 µM | 0.071 µM
70 | COc1ccc(C(=O)/C=C/c2cc(C(=O)c3cc(OC)c(OC)c(OC)c3)ccc2OC)cc1 | > 100 µM | > 100 µM
71 | CC1(C)OC2CN(C(=O)OCc3ccccc3)C(CO)C2O1 (stereo not drawn) | > 100 µM | 
72 | CC(=S)NNC(=O)c1ccncc1 | > 100 µM | 

Row | Compound | TGI | GI50
73 | c1ccc2[nH]c(-c3ccc(OCCCCCOc4ccc(-c5nc6ccccc6[nH]5)cc4)cc3)nc2c1 | 15.6 µM | 3.72 µM
74 | CCOC(=O)c1ccc(Nc2nc3ccc(C(F)(F)F)cc3nc2-c2ccccc2)cc1 | > 100 µM | 
75 | CCCN(CCC)C(=O)Cc1c2n(c3ccccc13)Cc1ccccc1-2 | > 100 µM | 
76 | CC(C)(C)C(=O)C(c1ccc(-c2cscn2)cc1)c1ccc(-c2cscn2)cc1 | > 100 µM | 
77 | O=C(c1ccc(Cl)cc1)N(C(=S)N1CCN(c2ccccc2)CC1)c1ccccc1 | > 100 µM | 
78 | CCC(C)/C=C(C)/C=C/C(=O)c1c(O)c(-c2ccc(O)cc2)c[nH]c1=O (stereo not drawn) | 16.3 µM | 3.26 µM
79 | Cn1c2ccccc2n2c3ccccc3c(=S)c(C#N)c12 | > 100 µM | 
80 | C=CCOc1ccc(C2c3c([nH][nH]c3=O)CC(C)(O)C2C(=O)OC)cc1OC (stereo not drawn) | > 100 µM | 
81 | O=S(=O)(O)c1ccc(N=Nc2ccc(N=Nc3ccc(/C=C/c4ccc(N=[N+]([O-])c5ccc(/C=C/c6ccc(N=Nc7ccc(N=Nc8ccc(S(=O)(=O)O)cc8)c8ccccc78)cc6S(=O)(=O)O)c(S(=O)(=O)O)c5)cc4S(=O)(=O)O)c(S(=O)(=O)O)c3)c3ccccc23)cc1 | > 100 µM | 
82 | COC(=O)c1ccc(NCC2=CC(=O)c3ccccc3C2=O)cc1 | 35.7 µM | 
83 | C=CC1(CBr)CCC(C(C)(C)Br)O1 (stereo not drawn) | 34.2 µM | 
84 | Cc1c(Cl)cccc1NC(=O)c1sc2nc3c(cc2c1N)CCCCCC3 | > 50 µM | 0.331 µM
85 | O=C(/C=C/c1ccc(Cl)c(Cl)c1)CCN1CCN(CCC(=O)/C=C/c2ccc(Cl)c(Cl)c2)CC1 | > 100 µM | 
86 | CC(=O)O/C(=C(/C#N)C(=O)O)C1C(C(=O)O)C(c2ccccc2[N+](=O)[O-])C=C(c2ccco2)N1c1ccncc1 (stereo not drawn) | 23.8 µM | 
87 | COc1ccc2c(-c3ccc(O)cc3)c(Oc3ccccc3)c(=O)oc2c1 | > 49.1 µM | 
88 | COC(=O)CC1(O)C(C=C(C)C)C(C(=O)OC)C(=O)C(C(=O)OC)C1C(=O)OC (stereo not drawn) | > 100 µM | 
89 | NNC(=O)CCCCCCCC(=O)O | > 100 µM | 
90 | CC(=O)OC[C@@H]1[C@H]2CC(=O)O[C@H]2C[C@H]1OC(C)=O | > 100 µM | 
91 | Fc1ccc(-c2nnc3sc(-c4cccc(Cl)c4)nn23)cc1Cl | > 100 µM | > 100 µM
92 | CCOC(=O)C(Cc1c[nH]c2cc([N+](=O)[O-])ccc12)(NC(C)=O)C(=O)OCC | > 1000 µM | > 1000 µM
93 | CC(C)(N=NC(C)(C)C1=NCCN1)C1=NCCN1 | > 100 µM | 

Source: PubChem BioAssay (NCI)
